# Out of some 210,000 compounds screened, about 730 (0.35%) were called active. Inconclusive means that the source gave no clear call. Such entries were picked first, then a sample of the others. Calls follow the shape of the dose curve; as a rule, active = well fitted inhibition curve with a large enough effect; inconclusive = small, poorly fitted or top-dose-only effect; inactive = no such curve, though single readings can be large or run the other way. A potency beside an inconclusive call is a rough fit, not a confirmed value.
# Experiment: qHTS Assay for Identifying the Cell-Membrane Permeable IMPase Inhibitors: Potentiation with Lithium; also: nearly all actives have a fitted effect of over 50% in size;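 as to activity, negative = IMPase inhibition: plate controls were basal vehicle for no effect and high inhibitor control for full effect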
# Conditions: CHO-M1 cells, IP1 TR-FRET (IP-One), carbachol + lithium; series mostly up to 59.4 µM; activity, negative = IMPase inhibition: at the top concentration
# Summary of the method: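 Concentration–response in CHO-M1 cells, lithium-potentiated; 30 min at 37C. IP1 detected by competitive TR-FRET after 10 min lysis at RT. Hill-fitted AC50.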
# Potency is read from the fitted curve at half-maximal effect.
SMILES,Potency,"activity, negative = IMPase inhibition"
C(=C\c1ccco1)/C1=NN(c2ccccc2)C(c2ccco2)C1 (centres undefined),"inconclusive: 11.2 µM [inhibitor, partial curve]",
Cc1ccccc1OC/C(O)=C(\C#N)c1nc2ccccc2[nH]1,active: 12.6 µM,
Cc1[nH]nc(SCC(=O)NCc2ccccc2)c1[N+](=O)[O-],"inconclusive: 12.6 µM [inhibitor, partial curve]",
C=C(C)CNC(=S)N/N=C/c1c(F)cccc1F,,inactive: 1.84%
Cn1cccc1C(=O)N1CCC2(CC1)CN(C(=O)Nc1cccc(C#N)c1)C2,"inconclusive: 25.1 µM [inhibitor, single point]",
CC(=O)NCCNc1ncnc2ccc(-c3cccc(NS(C)(=O)=O)c3)cc12,"inconclusive: 12.6 µM [inhibitor, single point]",
O=C(Nc1nccs1)c1cc2sccc2n1Cc1ccc(F)cc1,"inconclusive: 28.2 µM [inhibitor, single point]",
Cc1cc(C)c2nc(NC(=O)c3ccc4c(c3)OCO4)sc2c1,"inconclusive: 22.4 µM [inhibitor, single point]",
Cc1ccc(C(=O)NNC(=S)Nc2cccc(Cl)c2Cl)cc1[N+](=O)[O-],,inactive: 50.7% [at 38.3 µM]
O=S1(=O)CCN2C(=N1)Sc1c2ccc2c1CCCC2,"inconclusive: 31.6 µM [inhibitor, single point]",
COc1cccc(C(=O)CSc2nnc(-c3cc(OC)cc(OC)c3)o2)c1,"inconclusive: 28.2 µM [inhibitor, single point]",
CC1CC(C)CN(C(=O)/C=C/c2ccc([N+](=O)[O-])s2)C1 (centres undefined),"inconclusive: 2.82 µM [inhibitor, full curve, poor fit]",
Cc1cc(N2C(=O)C(O)=C(C(=O)c3ccco3)C2c2ccc(O)cc2)no1 (centres undefined),"inconclusive: 11.2 µM [inhibitor, partial curve, poor fit]",
COc1nc2ccccc2cc1-c1noc(-c2cccnc2)n1,"inconclusive: 12.6 µM [inhibitor, single point]",
COc1ccc(NC(=O)CSc2nnc(-c3cccs3)n2-c2ccccc2)cc1,"inconclusive: 28.2 µM [inhibitor, single point]",
Nc1ccc(-c2nc3ccc(-c4nc5ccccc5o4)cc3[nH]2)cc1,"inconclusive: 12.6 µM [inhibitor, single point]",
CCc1ccc2nc(SCC(=O)Nc3nnc(C)s3)c(C)cc2c1,"inconclusive: 25.1 µM [inhibitor, single point]",
COc1ccc(OC)c(-n2c(=S)[nH]c3cc(C(=O)N4CCN(c5ccccc5)CC4)ccc3c2=O)c1,"inconclusive: 5.62 µM [inhibitor, partial curve]",
CCn1c(=S)ccc2ccc(OC)cc21,"inconclusive: 12.6 µM [inhibitor, single point]",
Cc1ccc2nsnc2c1NC(=O)c1sc2ccccc2c1Cl,"inconclusive: 28.2 µM [inhibitor, single point]",
CC(=O)Nc1ccc2c(c1)C(=O)N(c1ccc(C)cc1)C2=O,"inconclusive: 31.6 µM [inhibitor, single point]",
COc1ccc(N2C(=O)C3[C@@H](C2=O)C2(Cl)C(Cl)=C(Cl)C3(Cl)C2(OC)OC)cc1 (some centres undefined),,inactive: -4.84%
CCCOc1ccc(OCCSc2ncccn2)cc1,,inactive: -1.64%

SMILES,Potency,"activity, negative = IMPase inhibition"
Oc1ccc(Cl)cc1C1=Nc2ccccc2N=C(c2ccco2)C1,"inconclusive: 28.2 µM [inhibitor, single point]",
C=CCn1c(-c2cccc(Cl)c2)n[nH]c1=S,active: 8.91 µM,
CCOC(=O)CSc1nc2ccccc2n2cnnc12,"inconclusive: 11.2 µM [inhibitor, single point]",
O=C(NCCCn1ccnc1)C(=O)NCC(c1cccnc1)N1CCN(c2ccc(F)cc2)CC1 (centres undefined),"inconclusive: 31.6 µM [inhibitor, single point]",
O=C(NC1CCCC1)c1cnn2c(C(F)(F)F)cc(-c3ccc4c(c3)OCO4)nc12,"inconclusive: 28.2 µM [inhibitor, single point]",
Cc1c(C)c2ccc(OCc3ccc(C(=O)O)o3)c(C)c2oc1=O,"inconclusive: 12.6 µM [inhibitor, partial curve]",
O=S(=O)(Nc1nc2ccccc2nc1Nc1ccc2c(c1)OCCO2)c1cccs1,"inconclusive: 0.316 µM [inhibitor, full curve, poor fit]",
COc1cccc2c(=O)c(C(=O)NCc3cccs3)c[nH]c12,"inconclusive: 28.2 µM [inhibitor, single point]",
CC1=C/C(=C(/c2ccc(O)c(C)c2)c2ccccc2C(=O)O)C=CC1=O,,inactive: 11.8%
Cc1ccc2nc(N3C(=O)C(O)=C(C(=O)c4ccco4)C3c3cccs3)sc2c1 (centres undefined),"inconclusive: 11.2 µM [inhibitor, partial curve]",
O=C1OC(/C=C/c2ccc(Cl)cc2Cl)=NC/1=C\c1cccs1,,inactive: -4.28%
CCOc1ccc(OCC)c(NC(=O)C2COc3ccccc3O2)c1 (centres undefined),"inconclusive: 2.24 µM [inhibitor, partial curve]",
COC(=O)Cc1ccc(O)c(N)c1,,inactive: 6.19%
CC(=O)c1nc(N2C(=O)CC(Cc3cccc(C)c3)C2=O)sc1C (centres undefined),"inconclusive: 12.6 µM [inhibitor, partial curve]",
OC(COc1ccc2cc(Br)ccc2c1)CN1CCN(c2ccccn2)CC1 (centres undefined),"inconclusive: 12.6 µM [inhibitor, single point]",
O=C(O)C1CC=CCC1C(=O)N1CCN(c2nc(-c3ccccc3Cl)c3cc(Br)ccc3n2)CC1 (centres undefined),active: 11.2 µM,
CCOC(=O)c1c(-c2cccs2)csc1NC(=O)CCCC(=O)O,active: 10 µM,
Cc1ccc(S(=O)(=O)NCCC(=O)NCc2ccc3c(c2)OCO3)cc1C,"inconclusive: 5.62 µM [inhibitor, partial curve, poor fit]",
NC1(C(=O)O)CCc2cc(C(=O)O)ccc21 (centres undefined),inactive,
CCn1c(=O)c([N+](=O)[O-])c(NCC(O)c2ccccc2)c2ccccc21 (centres undefined),,inactive: -0.036%
COC(=O)c1ccc(/C=N/OCC(=O)NCCc2ccc(OC)c(OC)c2)cc1,"inconclusive: 4.47 µM [inhibitor, full curve]",
O=C(CNC(=S)N(Cc1ccccc1)Cc1ccccc1F)NCc1ccc(Cl)cc1,"inconclusive: 3.16 µM [inhibitor, full curve, poor fit]",
CCCSc1nnc(NC(=O)c2sc3nc(-c4cccs4)ccc3c2N)s1,"inconclusive: 10 µM [inhibitor, partial curve]",

SMILES,Potency,"activity, negative = IMPase inhibition"
O=C1Oc2ccccc2C(=O)/C1=C/c1ccccc1O,"inconclusive: 14.1 µM [inhibitor, single point]",
NC(=O)c1sc2nc(N3CCCCC3)c3c(c2c1N)CCCC3,"inconclusive: 12.6 µM [inhibitor, single point]",
COc1cccc2cc(C(=O)C3=C(O)C(=O)N(CCN4CCOCC4)C3c3cccs3)oc12 (centres undefined),"inconclusive: 12.6 µM [inhibitor, single point]",
O=C(N/N=C/c1cn(-c2cccs2)nc1-c1ccccc1)c1ccccc1O,"inconclusive: 10 µM [inhibitor, single point]",
C=CCNC(=S)Nc1ccc2nsnc2c1,,inactive: -11.9%
COc1ccc(CCC(=O)Nc2ccc(-c3noc(-c4ccc(OC)c(OC)c4)n3)cc2)cc1,"inconclusive: 12.6 µM [inhibitor, single point]",
COc1ccc(NC(=O)c2cc(-c3cccs3)on2)cc1OC,"inconclusive: 11.2 µM [inhibitor, partial curve]",
COc1ccc(C(NC(=O)C(C)C)c2c(O)ccc3ccccc23)cc1OC (centres undefined),,inactive: -2.97%
COc1ccccc1N1CCN(C(=O)c2cc(-c3ccc4c(c3)OCO4)on2)CC1,"inconclusive: 31.6 µM [inhibitor, partial curve]",
Nc1ccc2oc(-c3cccc4ccccc34)nc2c1,"inconclusive: 10 µM [inhibitor, partial curve]",
COc1cnc(-c2ccccn2)nc1Oc1ccccc1,"inconclusive: 3.55 µM [inhibitor, single point]",
COc1ccc(CC(=O)Nc2ccc(-c3nnc(-c4ccccc4)o3)cc2)cc1,active: 10 µM,
Cc1ccc(S(=O)(=O)CC2CSc3nc4ccccc4n32)cc1 (centres undefined),,inactive: 38.7% [at 38.3 µM]
CCOc1ccc(C2C(C#N)=C(N)SC(N)=C2C#N)c(OCC)c1,"inconclusive: 11.2 µM [inhibitor, single point]",
O=c1c(Oc2ccccc2F)coc2cc(OCc3cnn(-c4ccccc4)c3)ccc12,"inconclusive: 28.2 µM [inhibitor, single point]",
O=c1cc(-c2cccc(F)c2)[nH]c2ccc(Cl)cc12,"inconclusive: 28.2 µM [inhibitor, single point]",
CCc1ccc(NC(=O)C(=O)N/N=C(\C)CC(=O)NCc2ccc(Cl)cc2)cc1,"inconclusive: 2 µM [inhibitor, full curve, poor fit]",
O=S(=O)(Nc1nc2ccccc2nc1Cl)c1ccc2ccccc2c1,"inconclusive: 11.2 µM [inhibitor, partial curve]",
Cc1onc(-c2ccccc2Cl)c1C(=O)N1CCN(C/C=C/c2ccccc2)CC1,,inactive: 9.56% [at 38.3 µM]
Cc1cccc(Oc2nc(-c3cccc([N+](=O)[O-])c3)nc3ccccc23)c1C,,inactive: -15.9% [at 38.3 µM]
Cc1ccc(Cn2ccc(NC(=O)c3cc(-c4cccc(Cl)c4)on3)n2)cc1,"inconclusive: 28.2 µM [inhibitor, single point]",
COc1ccc(CNc2ncncc2-c2ccccc2C(F)(F)F)c(OC)c1,,inactive: 8.18%
Nc1ccc2oc(-c3ccc4nc[nH]c4c3)nc2c1,"inconclusive: 31.6 µM [inhibitor, single point]",
